Test results reported in ChEMBL document CHEMBL1153920, “4,4-Difluorinated analogues of l-arginine and N(G)-hydroxy-l-arginine as mechanistic probes for nitric oxide synthase” (Bioorg Med Chem Lett, 2009).

Key:
[1] = tested on: N=C(N)NCC(F)(F)C[C@H](N)C(=O)O; assay: (§1) Activity of iNOS assessed as oxidation of oxyhemoglobin to methemoglobin by indirect spectral assay
[2] = tested on: N/C(=N\O)NCC(F)(F)C[C@H](N)C(=O)O; assay: as §1
N=C(N)NCCC[C@H](N)C(=O)O = assay: as §1
[3] = tested on: N=C(NO)NCCC[C@H](N)C(=O)O; assay: as §1

Nitric oxide synthase, inducible (Homo sapiens) (letters omitted)
Km [1]: 814 µM | Km [2]: 328 µM | Km (N=C(N)NCCC[C@H](N)C(=O)O): 8.6 µM | Km [3]: 52 µM
